Among the data in the RNAGym collection of RNA variant scans (doi:10.1093/nar/gkz1192) are self-cleavage values, retold here.

Read counts are not given, so values of variants with three or more changes are uncertain.

To fix the notation:
B1: CPEB3 Ribozyme (parent)
chain: UAACAGGGGGCCACAGCAGAAGCGUUCACGUCGCAGCCCCUGUCAGAUUCUGGUGAAUCUGCGAAUUCUGCUGUAUAUCUC

This data set covers variants of B1. Description: self-cleavage, relative activity (ratio to wild type); higher = more cleavage; in vitro, sequencing. In outline:
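After error-prone PCR and barcoding, CPEB3 ribozyme mutant libraries were transcribed with T7 RNA polymerase at 37°C for 5 hours, then given 15 min with DNase I before an EDTA stop, and they cleaved during both steps. Reverse transcription with template switching preceded Illumina sequencing. Relative activity divides a variant's cleaved/total read fraction by the unmutated ribozyme's. At least 5 reads were required per variant, and three batches were averaged.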
Turning to A15G U25C A64G A75C, the self-cleavage was found to be 0.1.

Consider A15G A35U A65G U67C, for which the self-cleavage came out at 0.08.

On to A15G A35U A45G A47U U54A U72C, for which the self-cleavage worked out at 0.2.

In the case of A15G A21C U80C, the self-cleavage stood at 0.13.

Consider A15G C38G U67A, for which the self-cleavage worked out at 0.23.

Consider A15G A28G U31A, for which the self-cleavage turned out to be 0.51.

With A15G C27U U31C A45G C50U U60A U72C, the self-cleavage was 0.05.

Regarding A15G A35U C44U, the self-cleavage was 0.14.

Regarding A15G A18U A77G, the self-cleavage was determined as 0.19.

Regarding A15G G16U A64U U72A, the self-cleavage was found to be 0.1.

Consider A15G A47G U66C U80C, for which the self-cleavage is 0.24.

Take A15G U25A U26C C37U A45G U51A: the self-cleavage was found to be 0.08.

Turning to A15G A20U A21G G46U A56G U67C U69G, the self-cleavage is 0.05.

For the variant A15G A64C G70A U78C, the self-cleavage worked out at 0.15.

Turning to A15G A20U U41A, the self-cleavage was found to be 0.27.

A15G G33A C34U U41A A47G U76C: the self-cleavage amounted to 0.04.

In the case of A15G G33A U49C, the self-cleavage came out at 0.08.

As for A15G A47G U60C U76C, the self-cleavage turned out to be 0.29.

Consider A15G A18U U51A, for which the self-cleavage came out at 0.39.

With A15G C62U U66C U72A U76C, the self-cleavage came to 0.14.

Consider A15G A64G U74A, for which the self-cleavage was determined as 0.76.

As to A15G A45G U78C, the self-cleavage was determined as 0.49.

Consider A15G A35G U54A A57G U60C, for which the self-cleavage is 0.37.

Take A15G A20G A77C U80C: the self-cleavage turned out to be 0.31.

With A15G A21G U43C A64G G70U A77U, the self-cleavage worked out at 0.14.

Regarding A15G C23U G53C, the self-cleavage worked out at 0.16.

For the variant A15G A20G U31C U66C U72A U74A, the self-cleavage came to 0.11.

In the case of A15G A28G U76C, the self-cleavage came to 0.27.

Take A15G A21G G33A U54C U67A: the self-cleavage turned out to be 0.22.

On to A15G G24A U25C C38G U43C A56G A65G, for which the self-cleavage was found to be 0.2.

Consider A15G C38A U43C G63U U66C A77G, for which the self-cleavage came out at 0.08.

For A15G A35G U43A A65G, the self-cleavage worked out at 0.42.

For A15G A21G U58C A64C, the self-cleavage came to 0.2.

For the variant A15G C40U A45U U48C, the self-cleavage came out at 0.14.

With A15G A35G U41C U51A, the self-cleavage came out at 0.33.

With A15G G55A U72C, the self-cleavage turned out to be 1.07.

A15G A45G A47G A57U A77G: the self-cleavage worked out at 0.08.

On to A15G A21G A28C, for which the self-cleavage was 0.33.

A15G G30A U43C A57G: the self-cleavage came out at 0.28.

As for A15G A28G U74C, the self-cleavage came out at 0.85.

Consider A15G A21G U41A A57G A64U, for which the self-cleavage was determined as 0.11.

Regarding A15G U25C A35G A65G U69C A77G, the self-cleavage was 0.2.

Regarding A15G G30A U41G U51C U76C A77G, the self-cleavage amounted to 0.06.

Turning to A15G C40U U54C U78C, the self-cleavage came to 0.54.

For the variant A15G G24U U25C G52C U60C U69C, the self-cleavage is 0.1.

Regarding A15G A47G A64U U67C, the self-cleavage came out at 0.2.

As to A15G A21G U48C A75U, the self-cleavage was 0.34.

Take A15G A35G U69A U80C: the self-cleavage was 0.24.

A15G U25C C32U U72C U76C: the self-cleavage was 0.05.

Take A15G A21G A28G U67C A75U U78C: the self-cleavage was 0.03.

Take A15G G46U A47U U48G U78C: the self-cleavage stood at 0.11.

On to A15G G55U A64G U78C, for which the self-cleavage is 0.44.

With A15G A56G U72A, the self-cleavage amounted to 0.48.

For the variant A15G G42U U69C, the self-cleavage worked out at 0.33.

Regarding A15G C23G U51C U74C, the self-cleavage was found to be 0.04.

A15G U25C A56G A64G U72C: the self-cleavage turned out to be 0.19.

For the variant A15G G19U U26A A45U U60C, the self-cleavage was found to be 0.12.

Regarding A15G C40U U51C C62U G70A, the self-cleavage worked out at 0.09.

As for A15G C23A A64U U67C, the self-cleavage was 0.15.

Take A15G A18U U26C U60A: the self-cleavage stood at 0.12.

For the variant A15G C39G A47G U54C A57G C62A U69C, the self-cleavage is 0.02.

For the variant A15G C59G U60C, the self-cleavage is 0.15.

As to A15G A35U U69C, the self-cleavage worked out at 0.18.

For A15G C23U A56G C62U U66C U76C U78C, the self-cleavage is 0.06.

For the variant A15G A21G U31C A45G, the self-cleavage was 0.15.

Turning to A15G A45U A56G U60A U67A A75G, the self-cleavage came out at 0.11.

With A15G A64G U69C U78C, the self-cleavage was 0.13.

As to A15G A35U A77G, the self-cleavage came to 0.37.

As for A15G A28U C40A, the self-cleavage came out at 0.12.

Take A15G C23G G63U U69C U72C: the self-cleavage stood at 0.08.

On to A15G A35G C39U A77U, for which the self-cleavage was determined as 0.47.

Turning to A15G A28G U41C U66C U72A U76A, the self-cleavage amounted to 0.21.

For A15G A21G G22C U26A, the self-cleavage was 0.06.

Regarding A15G A20G U26C U51A C68U, the self-cleavage is 0.33.

For A15G A20G U26C U41A A56G, the self-cleavage is 0.74.

As to A15G A45G U54A U69A U72C, the self-cleavage is 0.38.

As to A15G C23U U51C A65G U72C A77U, the self-cleavage came to 0.22.

Take A15G C27A U31A A35U: the self-cleavage came to 0.1.

As for A15G U25A A57G, the self-cleavage stood at 0.66.

For the variant A15G G55U U60C U67G, the self-cleavage was found to be 0.13.

On to A15G A28G G33C C68A U78A, for which the self-cleavage turned out to be 0.12.

Take A15G A20G U26C C44G A64U: the self-cleavage amounted to 0.04.

Regarding A15G C32U U58C, the self-cleavage was determined as 0.16.

Take A15G C17A A21G C34U U41A A65U: the self-cleavage came to 0.06.
